From PubChem BioAssay AID938 (National Center for Advancing Translational Sciences (NCATS), 2007)
Several values for one entry are separate records, joined by “and”; a condition that tells them apart may be missing. Equal values may be shown once. Among all 73,000 compounds or so, about 1,800 (2.5%) were called active. The inconclusive results got no clear call from the source; some entries with a clear call stand among them for comparison. The call rests on the fitted dose curve; in most records, active means well fitted activation curve with a large enough effect; inconclusive means small, poorly fitted or top-dose-only effect; inactive means no such curve, though single readings can be large or run the other way. No potency is given beside an inconclusive call; the fits are too rough.

Assay: qHTS Assay for Agonists of the Thyroid Stimulating Hormone Receptor: Activators of Intracellular cAMP Concentrations in Parental HEK 293; further: nearly all actives have a fitted effect of over 55% in size; on activation: % of control where 0% means no effect
Settings: parental HEK293 CNG cAMP sensor, membrane potential fluorescence; activation: at 57.1 µM (top of the series) unless noted
Outline: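 Parental HEK 293 cells stably expressing a modified CNG channel (no TSHR) report cAMP rise as membrane depolarization. Membrane potential dye with 100 uM RO 20-1724 was loaded for 60 min at room temperature, then compound added for 30 min; fluorescence read at 590 nm.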
Potency means the concentration at half of the fitted maximal effect; tags describe the fitted curve by direction and shape.

Row | SMILES | activation | Potency
1 | Cc1cccc(N(C)S(=O)(=O)c2ccc3[nH]c(=O)c(=O)[nH]c3c2)c1 | inactive: 0.796% | 
2 | c1coc(CNCC2OCCc3ccccc32)c1 (configuration not stated) |  | inconclusive [activator, partial curve]
3 | COc1ccc(-n2c(C)cc(C(=O)CSc3nnc(-c4ccoc4C)n3C)c2C)cc1 |  | active: 31.6 µM
4 | CN(C)CCCN1c2ccccc2CCc2ccc(Cl)cc21 |  | inconclusive [activator, single point]
5 | O=c1cc(N2CCN(Cc3ccccc3)CC2)[nH]c(=O)n1-c1cccc(C(F)(F)F)c1 |  | inconclusive [activator, single point]
6 | COc1cc(OC)c(C#N)c(S(=O)Cc2ccccc2)c1 (configuration not stated) | inactive: 4.52% | 
7 | C=CCn1c(SCc2cc(=O)n3ccsc3n2)nc2scc(C3CC3)c2c1=O |  | inconclusive [activator, single point]
8 | Cc1cccc(OCC(=O)Nc2ccc3c(c2)OCO3)c1C |  | inconclusive [activator, single point]
9 | Cc1cc(Cc2cc(Cc3cc(C)cc(C(C)(C)C)c3O)c(C)cc2C)c(O)c(C(C)(C)C)c1 | inactive: -1.92% [at 11.4 µM] | 
10 | COc1ccc(O[C@H]2C=C[C@@H](c3ccccc3)O[C@H]2COC(=O)CC/C(C)=N\O[C@@H](C)CN2CCCc3nc(C)c(C)cc32)cc1 | inactive: 22.6% [at 11.4 µM] | 
11 | COC(=O)c1[nH]c2ccc(C)cc2c1NC(=O)CN1CCCc2ccccc21 | inactive: 28.2% | 
12 | CCN(CC)c1nc(-c2nn[nH]n2)nc(N(CC)CC)n1 | inactive: -3.2% | 
13 | COc1ccccc1CCn1c(=O)c(-c2ccc(F)c(F)c2)nc2cncnc21 |  | inconclusive [activator, full curve]
14 | N#Cc1cc2ccc(N3CCOCC3)cc2cc1C#N |  | inconclusive [activator, single point]
15 | [O-]/[N+](=C/c1cccnc1)c1ccc(Br)cc1 | inactive: 8.73% [at 11.4 µM] | 
16 | COc1ccccc1-c1nn2c(-c3ccccc3Cl)nnc2s1 |  | inconclusive [activator, single point]
17 | CCn1c2ccccc2c2cc(CN3CCN(C(=O)c4ccco4)CC3)ccc21 |  | inconclusive [activator, full curve, poor fit]
18 | CCN(CC)S(=O)(=O)c1cccc(S(=O)(=O)c2cccc(S(=O)(=O)N(CC)CC)c2)c1 |  | inconclusive [activator, partial curve]
19 | COc1ccccc1-c1nc(NCc2ccccc2)c2ccccc2n1 |  | inconclusive [activator, partial curve]
20 | COc1ccccc1CNc1nc(-c2c(C)noc2C)nc2ccccc12 |  | inconclusive [activator, single point]
21 | CCOC(=O)N1CCc2c(sc(NC(=O)c3ccc(S(=O)(=O)N4CCCC4)cc3)c2C#N)C1 |  | inconclusive [activator, single point]
22 | Cc1nc2ccccc2n1-c1nc(-c2ccco2)cc(C(F)(F)F)n1 |  | active: 3.16 µM
23 | COc1ccc(C(O)c2nc3ccccc3s2)cc1 (configuration not stated) |  | inconclusive [activator, partial curve]
24 | O=C(O)c1cccc(COc2ccccc2Cl)c1 | inactive: 10.9% | 

Row | SMILES | activation | Potency
25 | COc1ccccc1C1CC(c2ccc(Cl)cc2)Nc2ncnn21 (configuration not stated) |  | inconclusive [activator, full curve]
26 | COc1ccc(-c2cc(C(F)F)n3ncc(C(=O)N4CCN(C(=O)c5ccco5)CC4)c3n2)cc1 | inactive: 5.87% | 
27 | O=C(c1cnn2ccccc12)N1CCCc2ccccc21 |  | inconclusive [activator, single point]
28 | Cc1ccccc1-c1nc(CS(=O)(=O)CC(=O)N(C)C2CCCCC2)c(C)o1 |  | inconclusive [activator, single point]
29 | Cn1cc(Cl)c(-c2nc3ccccc3[nH]2)n1 | inactive: 4.55% | 
30 | O=C(NCC(c1cccnc1)N1CCN(c2ccccc2F)CC1)c1cccc(Cl)c1 (configuration not stated) |  | inconclusive [activator, partial curve]
31 | N=C1C(c2ccccc2)=C(O)CN1c1ccccc1N1CCOCC1 |  | inconclusive [activator, full curve]
32 | CC(C)NC(=O)C1CCCN(c2nnc(-n3cccc3)s2)C1 (configuration not stated) |  | inconclusive [activator, single point]
33 | Clc1ccc(Cn2ncc3c(N4CCCCC4)ncnc32)cc1 | inactive: -16.4% | 
34 | CCCN(C/C=C\I)[C@@H]1CCc2cccc(O)c2C1 |  | inconclusive [activator, partial curve]
35 | CCN(CC)c1ccc(NC(=O)C(C)C)cc1 | inactive: -2.03% | 
36 | Cc1ccc(Nc2nc(N)nc(CN3CCN(c4ccccc4F)CC3)n2)cc1 | inactive: 7.44% | 
37 | Brc1ccc(CSc2nnc(-c3cnccn3)n2Cc2ccco2)cc1 |  | active: 20 µM
38 | N#CC1=C(N)Oc2cc(O)ccc2C1c1ccccc1 (configuration not stated) |  | inconclusive [activator, single point]
39 | Cc1cc(N=Cc2c(O)ccc3ccccc23)no1 | inactive: 11.6% | 
40 | COc1ccc(-n2c3c(cc(C(=O)N4CCCCC4)c2=O)C(=O)CC(C)(C)C3)cc1 |  | inconclusive [activator, single point]
41 | Cc1cccc(CNc2nc(-c3ccccc3CN(C)C)nc3ccccc23)c1 |  | active: 0.794 µM
42 | Cc1cccnc1NCC(O)COc1ccccc1 (configuration not stated) |  | inconclusive [activator, full curve]
43 | COc1ccc(S(=O)(=O)n2cnc3cc(C)c(C)cc32)cc1 |  | inconclusive [activator, single point]
44 | Cc1nn(C)c(C)c1CN(C)C(=O)c1cnn2c1NC(c1ccccc1)CC2C(F)(F)F (configuration not stated) |  | inconclusive [activator, partial curve]
45 | CCOc1ccccc1-c1nc(C(N)=O)c2[nH]c(=O)n(-c3cccc(C)c3)c2n1 |  | inconclusive [activator, partial curve]
46 | CCOC(=O)c1ccccc1NC(=O)CSc1nnc(COc2ccccc2C)n1C |  | active: 15.8 µM
47 | CCCCOC(=O)Cn1c(=O)c2c(nc(Br)n2Cc2ccccc2)n(C)c1=O |  | inconclusive [activator, partial curve]
48 | COc1ccc(-n2c(=O)cnc3cnc(Oc4cccc(Cl)c4)nc32)cc1 |  | inconclusive [activator, single point]

Row | SMILES | activation | Potency
49 | COc1cc(C(=O)Nc2nc(-c3cccs3)cs2)cc(OC)c1OC |  | inconclusive [activator, partial curve]
50 | CN(C)S(=O)(=O)c1cccc(C(=O)N2CCN(Cc3ccccc3)CC2)c1 |  | inconclusive [activator, partial curve]
51 | COc1cc(NC(=O)c2cccs2)c(C(=O)OCC(=O)NCc2ccco2)cc1OC |  | inconclusive [activator, single point]
52 | O=C(Oc1ccccc1)N1CCC2(CC1)CCN(c1ccncc1)CC2 |  | active: 7.94 µM
53 | COc1cc(NC(=O)C2CCCC2)c(OC)cc1Cl |  | inconclusive [activator, single point]
54 | Cc1cccc(-c2nnc(-c3ccccc3)o2)c1 |  | inconclusive [activator, partial curve]
55 | CC1=C(C)C(=O)C(CCCCC#CCCCC#CCO)=C(C)C1=O |  | inconclusive [activator, single point]
56 | CCCn1c(CCC(=O)O)ccc1-c1ccc(F)cc1 | inactive: 3.95% | 
57 | O=c1c(-c2ccccc2)nc2cnc(N3CCNCC3)nc2n1C1CC1 | inactive: -3.03% | 
58 | O=c1n(-c2ccccc2)c(=O)n2n1CC[C@H]1/C(=N\OC[C@@H](O)COCc3ccco3)[C@H]3O[C@@H]3[C@@H](O)[C@@H]12 | inactive: -3.04% [at 11.4 µM] and inactive: -3.58% [at 11.4 µM] | 
59 | Cc1cc(N2CCN(c3ccccn3)CC2)n2c(nc3ccccc32)c1C#N |  | active: 2 µM
60 | CCOC(=O)c1c(C)noc1CP(=O)(c1ccccc1)c1ccccc1 |  | active: 12.6 µM
61 | Cn1c(-c2ccc(F)cc2)cnc1SCC(=O)N1CCCCC1 | inactive: -1.79% | 
62 | COc1ccccc1CNC(=O)CCS(=O)(=O)c1ccc2c(c1)CCCN2C(C)=O |  | inconclusive [activator, single point]
63 | Cc1ccc2c(c1)cc(CN(Cc1cccs1)C(=O)c1ccco1)c1nnnn12 |  | active: 15.8 µM
64 | O=C(NC1CC1)c1ccc(-c2nc3ccccc3s2)s1 | inactive: 9.26% | 
65 | CCc1ccc(S(=O)(=O)NCc2csc(-c3cccnc3)n2)s1 |  | inconclusive [activator, single point]
66 | CC1Oc2ccccc2N(CC(=O)N2CCc3ccccc32)C1=O (configuration not stated) |  | inconclusive [activator, single point]
67 | CCOC(=O)c1c(NC(=O)COC(=O)c2c(C)noc2C)sc2c1CCC2 |  | inconclusive [activator, single point]
68 | O=C(C1CCN(S(=O)(=O)c2ccc(F)cc2)CC1)N1CC=C(c2ccccc2)CC1 |  | inconclusive [activator, single point]
69 | COC(C)(C)[C@]12CC(O)(c3ccccc3)ON1[C@H]1CCCCC1N2O (some centres not stated) |  | inconclusive [activator, single point]
70 | COc1ccc(NC(=O)c2cc(C(C)C)on2)cc1OC | inactive: 4.37% | 
71 | CCOC(=O)N1CCC(Nc2c(OCC)c(=O)c2=O)CC1 | inactive: 2.81% | 
72 | COc1ccc(NC(=O)N2CCC3(CC2)CCN(C(=O)c2ccco2)CC3)cc1 | inactive: -6.47% | 
